The record followed here is PMC12136788.

B1: chrX:71549762:71549763:+_ENSMUSG00000019087_ENSMUST00000019231|mus_mus|mus_mus_mus_hu_False|1_68 (ssRNA)
RNA: GGGAGUUCUACAGUCCGACGAUCAAACCCGUGUACUUCUUAUUGUUAGCACAACAUCACCAGAAAAAAAACAUAACAGCCAAGCAGGACAGACAGUUAAGUAGUACUUCCACACUCCCAAACUCAGGGAGCCCUAUAGUUCAUCAACAGAGGAUUGAGCAUCA
B2: chr5:179044645:179044646:-_ENSG00000169045_ENST00000393432|hu_hu|FALSE|FALSE (ssRNA)
RNA: GGGAGUUCUACAGUCCGACGAUCUACUCUGCCAUCAGGACCAAUUUCAAUGUGUACUCUCACAGGGUUGAGCGGUGAAAAAAAAUUAUAAAUGUCAUUCUCAGUAGCUCUGUAAGGUAAUCCCCGCAUGUGUACACAGUGUCCCAACAGAGGAUUGAGCAUCA
B3: chr2:126475859:126475860:-_ENSMUSG00000027361_ENSMUST00000110424|mus_hu|motif|central (ssRNA)
RNA: GGGAGUUCUACAGUCCGACGAUCAGUUUCUGAAGAAUUGGACAAUGGAGCAGAUGCUUCAGCUAAGGCAGCUAAUGUAGCGGAUACUGAUGUAGAAGAGUUUCCAAACUGAACAGCAGAUACACCCGUUUCAUCUGUUGCCUUCAACAGAGGAUUGAGCAUCA
B4: chr13:41369856:41369857:+_ENSMUSG00000091264_ENSMUST00000165561|mus_mus|FALSE|FALSE (ssRNA)
RNA: GGGAGUUCUACAGUCCGACGAUCUUGGCCUUGAAGCUCAUUUCCCGUAUGGAGCAGACAACACUAGAAGGUUCAUCAGUCUAUCACUUCUCUAGUUAACAGUCCAAAGUUCGGGUAGAACAAACAUGGACUCCUGGCAAGAGGCAACAGAGGAUUGAGCAUCA
B5: chr2:129997582:129997583:-_ENSMUSG00000027404_ENSMUST00000103199|mus_hu|FALSE|FALSE (ssRNA)
RNA: GGGAGUUCUACAGUCCGACGAUCAGGGGGCCCUGUAAGGGAAACCAGACAAUCCCAUGAGACUCCACGAACAACAGCAUAAGAAACAAACAGGUCUGUGGUAACGUGGCCCUGAGGAAUCGAGCCCACGCCUCUGCGGAGCUACAACAGAGGAUUGAGCAUCA
B6: 195000014_195000134_2550_3pUTR_ENSG00000114331_ENST00000326793|human|control|control (ssRNA)
RNA: GGGAGUUCUACAGUCCGACGAUCAGGGGGUCACCAGAUUUCAUAUUUUCCCAUUUUUAAAAAAAUUCAGAAUUUCUGUGAAUCUUGCUGGAAACGAUUUAGUUUCUCUGGAUUAUUGGAUGCCAUUUGGGAAAAAUCACGAAACAACAGAGGAUUGAGCAUCA
B7: 116383528_116384607_2571_3pUTR_ENSMUSG00000029516_ENSMUST00000051704|mouse|control|control (ssRNA)
RNA: GGGAGUUCUACAGUCCGACGAUCAGCUGCUGCUCAGCAUUGAUCUUCUCCAGUUUGGAAUAUUCUCCCACUUCAGGCUUCCCUUGGUCCUUAGCCUUCAUCAGUUUGUGCUGACAUUCGUUUGCCUUCCGCUUGAAUUCCUCGCAACAGAGGAUUGAGCAUCA
B8: 15271562_15271682_6892_CDS_ENSG00000074181_ENST00000263388|human|control|control (ssRNA)
RNA: GGGAGUUCUACAGUCCGACGAUCAAGUGGCUGGGCAGGCAGUGCCCCAGUGGUGGUGGCCAUGGCCCCAGUGGCAGUGGCUGGGCUAGGCGUGGAUUCGGACCAGUCUGAGAGGGAGGGAGGUGAGGGGCUGGCCCAGUGCUCCAACAGAGGAUUGAGCAUCA
B9: chr11:77336104:77336105:-_ENSG00000074201_ENST00000525064|hu_mus|hu_hu_hu_mus_False|18_78 (ssRNA)
RNA: GGGAGUUCUACAGUCCGACGAUCCUCACACAUUGCUGUGAACAUCGCCUCCAAUGCUGAUUUAUCACUGGGCACAAAUCGAAAUUCAGAAAUGGGUUCAACAUCAUCAUUGUCUUCUUCCUCUUCUUCAGAGAGAGGUUCUUUCAACAGAGGAUUGAGCAUCA
B10: chr9:14120538:14120539:-_ENSG00000147862_ENST00000380959|hu_mus|FALSE|FALSE (ssRNA)
RNA: GGGAGUUCUACAGUCCGACGAUCCUUCAGAGUAUCCUGAGGAUUCAGGUGAGGAGGAUAUCUGAUUGUUGGAUGAGAGAAGUAGCUGGAAGGUGCCGGAGGAAGGAUAGCUUGCGUCGGAAAUGGCAACGGUGAGGGCGGAGGCAACAGAGGAUUGAGCAUCA
B11: chr2:78760142:78760143:+_ENSMUSG00000027011_ENSMUST00000028398|mus_hu|motif|central (ssRNA)
RNA: GGGAGUUCUACAGUCCGACGAUCGGUCCACUGUCUGGCUAUCCUGUCGUGUUCUGCUCUGUUGGUCAAAUACUGAGUGGCGGUGCUUCCAACCAGAGGAUCCGCAGGGUUGCAGUCUGUCAAAAGGGAACAAAUAGACAGCAACAACAGAGGAUUGAGCAUCA
B12: chr17:7417611:7417612:+_ENSG00000181222_ENST00000322644|hu_mus|FALSE|FALSE (ssRNA)
RNA: GGGAGUUCUACAGUCCGACGAUCGACAAAAAAGCCUAUCAAAAAUGGGGUCCAGAACUUCCAGAGGGUUUUGUCACAAGGAGUUAUGUACAAGGGACCCAGGGUAGGGUCACAGCCUGUGAGGUGAGGGAAGUGACACACAGGCAACAGAGGAUUGAGCAUCA
B13: chr12:46623017:46623018:-_ENSG00000111371_ENST00000398637|hu_hu|FALSE|FALSE (ssRNA)
RNA: GGGAGUUCUACAGUCCGACGAUCGAGUCCCAAAAUCCCACUGCCCAUAAUGGCGUUGCUUAGGUUAAAAACAGACAUGCCUAAGGAGGUUGUACCUGGAAUAUACUCAUCACACUUCUUUUUUUCCAAAUGGCUGUUUGUGAGCAACAGAGGAUUGAGCAUCA
B14: chr16:75203323:75203324:+_ENSG00000184517_ENST00000393430|hu_hu|FALSE|FALSE (ssRNA)
RNA: GGGAGUUCUACAGUCCGACGAUCUGCUUUUCCAAAUUCAUUACACUCAUCAGUCUGCUUUCCUGCAUAGCUUCUAUUACUAUUAAGCAAGUCUGAAUUAUAUUUCAAAGUUUUUUCAUAUAAGUCAUAUUUAUAAGGUACUUGCAACAGAGGAUUGAGCAUCA

Some of the results follow.

For this experiment, the target named is T1, UNK ZnF1-3 (human, UniProt Q9C0B0 31-174).
T1 sequence: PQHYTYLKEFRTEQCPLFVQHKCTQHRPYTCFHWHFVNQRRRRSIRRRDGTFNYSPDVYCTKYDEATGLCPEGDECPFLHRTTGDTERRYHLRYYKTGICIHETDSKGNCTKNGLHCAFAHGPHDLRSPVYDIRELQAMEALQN
In words: nsRBNS (natural sequence RNA bind-n-seq); RBNS binding buffer (assumed for nsRBNS): 25 mM Tris pH 7.5, 150 mM KCl, 3 mM MgCl2, 0.01% Triton X-100, 500 ug/ml BSA, 20 U/ml SUPERase-In, 4 C; UNK is unkempt and MSI1 is Musashi-1; names of the RNAs are library labels; protein concentration not given here; high values mean tight binding.
For the molecule B1, the binding signal came out at 1.86 enrichment R.
With B2, the binding signal amounted to 2.53 enrichment R.
For B3 the value was 0.512 enrichment R.
B4 registered a binding signal of 1.1 enrichment R.
B5 came in with a binding signal of 1.46 enrichment R.
For B6 the value was 0.981 enrichment R.
On to B7, for which the binding signal came out at 0.346 enrichment R.
As for B8, the figure is 1.75 enrichment R; as for B9, 0.805 enrichment R.
As for B10, the figure is 1.77 enrichment R; as for B11, 1.44 enrichment R.
As to B12, the binding signal came to 2.58 enrichment R.
In the case of B13, the binding signal is 1.15 enrichment R.
For B14 the value was 1.71 enrichment R.
